Paper PMC12136788
The other results are listed elsewhere or left out.

B1: chr5:144471560:144471561:-_ENSMUSG00000051306_ENSMUST00000053287|mus_mus|FALSE|FALSE (ssRNA)
RNA: GGGAGUUCUACAGUCCGACGAUCAGACUUCAAUAUCAUAUUGUCGAGACGAGACACAGUAUAAAAAGUGUUAGGUAAAAAAAACAUACUGUAGGCUUUACAAAUAAUGUCUGGAUUAUACAUUCAUAAUGCAAAUACUCAUCACAACAGAGGAUUGAGCAUCA
B2: chr3:100058692:100058693:+_ENSG00000114021_ENST00000480073|hu_hu|FALSE|FALSE (ssRNA)
RNA: GGGAGUUCUACAGUCCGACGAUCAUAUUCAGGAAAAUAUUUCGCUCCAUAUGGAGAAUUAAAGCAUUCCGGCAAAGAAACUAUUUUGGCUCCUUGCGUUGCUGCCUCCCGGAUGAAGCUACAAGCGCGAGUGACGUUAUCUGACAACAGAGGAUUGAGCAUCA
B3: 52759336_52769516_3469_CDS_ENSG00000157077_ENST00000287727|human|control|control (ssRNA)
RNA: GGGAGUUCUACAGUCCGACGAUCGGUAUACUGGUAAUUUCUGAAGUCUGCAAGAAGAUUCAUGAUGGUAUGCCCCGUCUCUCCAAACAAUGGCUUCCGAAAUCUGACACUGAAUAGUGGGCAUGGAUAAAGUCGAUAUUCAGCCAACAGAGGAUUGAGCAUCA
B4: chr7:135832511:135832512:+_ENSMUSG00000042105_ENSMUST00000118605|mus_hu|FALSE|FALSE (ssRNA)
RNA: GGGAGUUCUACAGUCCGACGAUCAUUAAUAUUUACAUCAGCCAAACAUGAUCCCCAGUCAAAAACAUUAUGUCCUUAACAAAAAGCACUUGGCACGUAACAGGCAGUCGGAAAAUGUCAACCCUCCCCCCACCCCCAAUUUUACAACAGAGGAUUGAGCAUCA
B5: chr3:38534408:38534409:+_ENSG00000114739_ENST00000352511|hu_hu|motif|central (ssRNA)
RNA: GGGAGUUCUACAGUCCGACGAUCUUCAAGCAGCAAAACCCCAACUUAGCAGAUCUAAUUUCAAACUUGACACUCAUUUCGGAAAUUACCACAGUAAAAAGGAACAAAGAUCCACUGCAAAUGAAUGAACUAUGAUACAAUGUUCAACAGAGGAUUGAGCAUCA
B6: chr1:219384882:219384883:+_ENSG00000143353_ENST00000366928|hu_mus|motif|central (ssRNA)
RNA: GGGAGUUCUACAGUCCGACGAUCGCUCACUCCUAGAGAUUUCAGUUUUGAGUUUGUCUCCUUGCCCCAAGCAUGCAGAACGGGGUUAUCUGCAGAGCCGUGACACUGGAAGAGCUCAGGGAGCAUGCGGCCACCUUGCUGAAGCAACAGAGGAUUGAGCAUCA

Each binder was assayed against T1, UNK ZnF1-3 (human, UniProt Q9C0B0 31-174) (assay: nsRBNS (natural sequence RNA bind-n-seq); RBNS binding buffer (assumed for nsRBNS): 25 mM Tris pH 7.5, 150 mM KCl, 3 mM MgCl2, 0.01% Triton X-100, 500 ug/ml BSA, 20 U/ml SUPERase-In, 4 C; UNK is unkempt and MSI1 is Musashi-1; names of the RNAs are library labels; protein concentration not given here; high values mean tight binding).
T1 sequence: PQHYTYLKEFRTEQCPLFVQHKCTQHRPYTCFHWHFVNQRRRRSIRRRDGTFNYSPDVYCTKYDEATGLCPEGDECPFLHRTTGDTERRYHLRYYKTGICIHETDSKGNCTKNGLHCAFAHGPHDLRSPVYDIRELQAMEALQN

Row | Binder | binding signal [enrichment R]
1 | B1 | 1.18
2 | B2 | 0.543
3 | B3 | 0.796
4 | B4 | 1.96
5 | B5 | 1.43
6 | B6 | 1.39
